Data reported in publication PMC4336329 (PLoS ONE, 2015).
About 14,000 (4.5%) of roughly 310,000 compounds showed an effect of 50% or more. The effect is printed as a negative number. The list shows a part of the results.
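Also: peak tail current of the secondary pulse compared with the same well before compound.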

The molecules below were run against human ether-à-go-go-related gene (hERG) potassium channel (human, UniProt Q12809) (assay: primary screen, population patch clamp on CHO cells stably expressing hERG).
human ether-à-go-go-related gene (hERG) potassium channel, sequence (Q12809 whole entry, looked up): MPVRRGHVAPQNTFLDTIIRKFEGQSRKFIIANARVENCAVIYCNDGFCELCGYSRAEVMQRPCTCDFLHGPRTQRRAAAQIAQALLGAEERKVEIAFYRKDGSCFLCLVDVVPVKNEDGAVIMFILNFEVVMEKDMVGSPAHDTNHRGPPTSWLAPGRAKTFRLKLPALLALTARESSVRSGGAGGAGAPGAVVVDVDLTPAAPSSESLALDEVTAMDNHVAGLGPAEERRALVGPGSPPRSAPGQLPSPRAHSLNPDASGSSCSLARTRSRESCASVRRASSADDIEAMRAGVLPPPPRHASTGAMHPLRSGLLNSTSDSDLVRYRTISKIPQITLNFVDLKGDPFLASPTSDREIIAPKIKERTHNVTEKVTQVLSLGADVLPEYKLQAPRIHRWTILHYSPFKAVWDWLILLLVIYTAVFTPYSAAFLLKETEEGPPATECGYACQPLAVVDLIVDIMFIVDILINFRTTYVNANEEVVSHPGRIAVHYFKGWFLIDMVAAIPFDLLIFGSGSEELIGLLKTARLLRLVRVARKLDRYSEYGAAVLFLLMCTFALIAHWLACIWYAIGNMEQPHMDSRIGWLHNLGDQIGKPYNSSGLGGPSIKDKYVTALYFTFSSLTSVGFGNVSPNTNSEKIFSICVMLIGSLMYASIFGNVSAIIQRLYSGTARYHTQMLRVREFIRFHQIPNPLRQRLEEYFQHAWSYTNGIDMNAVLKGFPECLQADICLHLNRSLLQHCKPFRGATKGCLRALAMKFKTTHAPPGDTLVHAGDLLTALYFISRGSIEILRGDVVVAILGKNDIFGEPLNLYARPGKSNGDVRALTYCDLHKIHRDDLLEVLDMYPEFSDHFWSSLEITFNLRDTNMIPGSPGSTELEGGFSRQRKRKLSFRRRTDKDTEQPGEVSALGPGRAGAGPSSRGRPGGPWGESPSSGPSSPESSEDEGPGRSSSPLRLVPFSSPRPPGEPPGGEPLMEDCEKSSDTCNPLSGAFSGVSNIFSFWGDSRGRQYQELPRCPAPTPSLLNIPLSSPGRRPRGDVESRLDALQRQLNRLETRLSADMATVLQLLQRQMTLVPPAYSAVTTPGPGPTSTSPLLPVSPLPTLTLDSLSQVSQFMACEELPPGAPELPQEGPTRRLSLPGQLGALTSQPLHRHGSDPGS
For `N#Cc1ccc(NCCc2ccccn2)c([N+](=O)[O-])c1`, the “hERG current change (%, negative = inhibition) at 10uM” value was -74%.
For `CCC1Sc2ccc(S(=O)(=O)CCC(=O)Nc3c(Cl)cc(OC)cc3OC)cc2NC1=O` (stereo not drawn), the “hERG current change (%, negative = inhibition) at 10uM” value was 5.6%.
`CCN(C(=O)COC(=O)c1cc(-c2cccc3ccccc23)nc2ccccc12)C1CCS(=O)(=O)C1` (stereo not drawn) was tested, and the “hERG current change (%, negative = inhibition) at 10uM” value was -6.23%.
With `COc1cc2c(cc1OC)C(COc1ccc3c(C)cc(=O)oc3c1)N(C(=O)c1ccco1)CC2` (stereo not drawn) the “hERG current change (%, negative = inhibition) at 10uM” value was -17.5%.
With `CN1CCN(S(=O)(=O)c2cccc(C(=O)N(Cc3nnc(-c4ccc(Cl)cc4)o3)C3CC3)c2)CC1` the “hERG current change (%, negative = inhibition) at 10uM” value was -49.3%.
For `CC(NC(=O)CN(C)CC(=O)Nc1ccc(Cl)c(C(F)(F)F)c1)c1ccccc1` (stereo not drawn), the “hERG current change (%, negative = inhibition) at 10uM” value was -12.7%.
In the case of `COc1ccc(CNC(=O)CCC(=O)Nc2ccc(Cl)cc2)cc1`, the “hERG current change (%, negative = inhibition) at 10uM” value was 10.9%.
`CC(=O)N1CCN(c2cc(N3CCc4ccccc4C3)c(F)cc2[N+](=O)[O-])CC1` was tested, and the “hERG current change (%, negative = inhibition) at 10uM” value was -41.3%.
For `Cc1cc(C)n(C(=O)c2nn(C)c(C)c2[N+](=O)[O-])n1`, the “hERG current change (%, negative = inhibition) at 10uM” value was 16.4%.
`O=C(Nc1ccc(Cl)cc1)N1CCC(CO)(Cc2ccccc2)CC1` was tested, and the “hERG current change (%, negative = inhibition) at 10uM” value was -46.6%.
In the case of `O=C(NCc1ccccn1)c1ccc(Cl)c(S(=O)(=O)N2CCCCC2)c1`, the “hERG current change (%, negative = inhibition) at 10uM” value was -10.1%.
`Cc1ccc(S(=O)(=O)NCCC(=O)NCc2cccnc2)cc1` was tested, and the “hERG current change (%, negative = inhibition) at 10uM” value was 13.6%.
With `CCOc1ccccc1-n1c(C)nc2cc(C(=O)O)ccc21` the “hERG current change (%, negative = inhibition) at 10uM” value was -6.4%.
For `O=C(Nc1ccc(-c2ccccc2)cc1)c1ccco1`, the “hERG current change (%, negative = inhibition) at 10uM” value was 19%.
For `CCOC(=O)NN1C(=O)c2ccccc2NC1c1ccccc1F` (stereo not drawn), the “hERG current change (%, negative = inhibition) at 10uM” value was -0.943%.
With `Cc1onc(-c2ccccc2Cl)c1C(=O)N(Cc1nc(-c2ccccc2)no1)C1CCCCC1` the “hERG current change (%, negative = inhibition) at 10uM” value was -7.51%.
In the case of `CC[C@@]12C(=O)N(c3cccc(F)c3)C(=O)N1[C@H](c1ccc(Br)cc1)[C@@H]1C(=O)N(C(C)(C)C)C(=O)[C@@H]12`, the “hERG current change (%, negative = inhibition) at 10uM” value was -4.75%.
With `Cc1ccc(-c2cc(-c3ccccc3)nc(Cl)n2)cc1` the “hERG current change (%, negative = inhibition) at 10uM” value was -6.29%.
With `Cc1nc(SCC(=O)NCc2ccc(F)cc2)c2c(=O)n(C)c(=O)n(C)c2n1` the “hERG current change (%, negative = inhibition) at 10uM” value was 5.05%.
In the case of `NC(=O)CC[C@@H]1NC(=O)[C@H](CO)NC(=O)c2cc([N+](=O)[O-])cc(I)c2OCC[C@@H](C(N)=O)NC1=O`, the “hERG current change (%, negative = inhibition) at 10uM” value was 3.83%.
With `Nc1ccc(C(=O)Nc2ccccc2N)cc1` the “hERG current change (%, negative = inhibition) at 10uM” value was 17.1%.
For `COc1ccc2occ(C(=O)c3coc4ccc(O)c(CN(C)C)c34)c2c1.Cl`, the “hERG current change (%, negative = inhibition) at 10uM” value was -72.1%.
`Cn1c(=O)c2c(nc(CN3CCN(C(=O)c4ccco4)CC3)n2CCCO)n(C)c1=O` was tested, and the “hERG current change (%, negative = inhibition) at 10uM” value was -27.6%.
With `CCC(CC)c1nc(NCCC(=O)O)c2ccccc2n1` the “hERG current change (%, negative = inhibition) at 10uM” value was 6.5%.
With `CCn1c(SCC(=O)N(C)CC(=O)Nc2cccc(OC)c2)nnc1-c1ccco1` the “hERG current change (%, negative = inhibition) at 10uM” value was 7.35%.
With `Cc1ccc(CN(Cc2cc3cc4c(cc3[nH]c2=O)OCCO4)Cc2nnnn2Cc2ccco2)cc1` the “hERG current change (%, negative = inhibition) at 10uM” value was -9.78%.
In the case of `N/C(=N\OC(=O)c1cnn(-c2ccccc2)c1C(F)(F)F)c1ccc(C(F)(F)F)cc1`, the “hERG current change (%, negative = inhibition) at 10uM” value was 15.8%.
`O=c1c(-c2ccccc2Cl)coc2c(CN3CCCCC3)c(O)ccc12` was tested, and the “hERG current change (%, negative = inhibition) at 10uM” value was -10%.
In the case of `C/C(CC(=O)NCc1ccco1)=N\NC(=O)Cc1ccc(Cl)cc1`, the “hERG current change (%, negative = inhibition) at 10uM” value was 13.9%.
With `CCOc1ccc(NC2c3ccccc3C(=O)N2Cc2ccco2)cc1` (stereo not drawn) the “hERG current change (%, negative = inhibition) at 10uM” value was -27.9%.
For `Cc1cccc(C(=O)Nc2ccc(NC(=O)Cc3ccc(Cl)cc3)cc2)c1`, the “hERG current change (%, negative = inhibition) at 10uM” value was 1.26%.
In the case of `Cc1sc2ncnc(OCC(=O)Nc3ccc4c(c3)OCCO4)c2c1C`, the “hERG current change (%, negative = inhibition) at 10uM” value was 3.04%.
For `Cc1cc(Cl)cc2c(N=Nc3ccccc3C(=O)O)c(O)[nH]c12`, the “hERG current change (%, negative = inhibition) at 10uM” value was 18.3%.
With `CCNc1nc(N)nc(Oc2ccc(OCc3ccccc3)nn2)n1` the “hERG current change (%, negative = inhibition) at 10uM” value was 4.99%.
`NC(N)=NCCCC(NC(=O)c1ccccc1)C(=O)Nc1ccc2ccccc2c1` (stereo not drawn) was tested, and the “hERG current change (%, negative = inhibition) at 10uM” value was 12.5%.
`Cc1ccc(C(=O)NC(C(=O)Nc2cccc(S(N)(=O)=O)c2)C(C)C)cc1` (stereo not drawn) was tested, and the “hERG current change (%, negative = inhibition) at 10uM” value was -2.38%.
`COc1cccc(NC(=O)CN2CCN(c3nc(-c4cccc(OC)c4)cs3)CC2)c1` was tested, and the “hERG current change (%, negative = inhibition) at 10uM” value was 8.87%.
For `COc1cccc(NC(=O)CN2CC(c3ccccc3)CC2=O)c1` (stereo not drawn), the “hERG current change (%, negative = inhibition) at 10uM” value was -7.6%.
`CCCOc1ccc(CN2CCOCC2)cc1OC.Cl` was tested, and the “hERG current change (%, negative = inhibition) at 10uM” value was -7.18%.
`COc1ccc(C(=O)N2CCN(c3c(C)cccc3C)CC2)cc1OC` was tested, and the “hERG current change (%, negative = inhibition) at 10uM” value was -68.8%.
With `Cc1ccc(C2(c3noc(CN4CCC(c5ccncc5)CC4)n3)CCCC2)cc1` the “hERG current change (%, negative = inhibition) at 10uM” value was -55.5%.
With `COc1cc2c(cc1OC)CN(C(=O)CCNS(=O)(=O)c1ccccc1F)CC2` the “hERG current change (%, negative = inhibition) at 10uM” value was 5.9%.
In the case of `CC(C)(C)OC(=O)N1CCC(CNC(=O)c2ccccc2)CC1`, the “hERG current change (%, negative = inhibition) at 10uM” value was 14.2%.
For `Nc1c(C(=O)NC2CCCC2)c2nc3ccccc3nc2n1N`, the “hERG current change (%, negative = inhibition) at 10uM” value was 25.1%.
With `CN(c1ccccc1)c1nc(N)c(C#N)c(CC#N)c1C#N` the “hERG current change (%, negative = inhibition) at 10uM” value was -15.3%.
For `COCCCn1c(SCC(=O)NC2CCCCC2)nc2ccccc2c1=O`, the “hERG current change (%, negative = inhibition) at 10uM” value was -16.9%.
In the case of `CC(Sc1nnc(-c2ccccc2F)n1C1CC1)C(=O)NC(N)=O` (stereo not drawn), the “hERG current change (%, negative = inhibition) at 10uM” value was 12.1%.
With `CCCCCCc1nnc(NC(=O)OCC)s1` the “hERG current change (%, negative = inhibition) at 10uM” value was -40%.
In the case of `CCOC(=O)N1CCN(C(=O)/C=C/c2ccc(C(C)(C)C)cc2)CC1`, the “hERG current change (%, negative = inhibition) at 10uM” value was -26.1%.
With `Cc1ncc([N+](=O)[O-])n1CC(O)CCl` (stereo not drawn) the “hERG current change (%, negative = inhibition) at 10uM” value was 4.43%.
In the case of `O=[N+]([O-])c1c(NCCO)cc(Sc2nc3ccccc3s2)c2nonc12`, the “hERG current change (%, negative = inhibition) at 10uM” value was 26%.
`CCCCN1C(N)=NC[C@@H]1CCCCN` was tested, and the “hERG current change (%, negative = inhibition) at 10uM” value was 8.7%.
For `Cc1ccc2c(c1)NC(=O)C(CC(=O)Nc1ccc(CN3CCC(C)CC3)cc1)O2` (stereo not drawn), the “hERG current change (%, negative = inhibition) at 10uM” value was -9.4%.
In the case of `Cc1cccc(-n2cc3c(=O)n(C)c(=O)n(C)c3c2)c1`, the “hERG current change (%, negative = inhibition) at 10uM” value was 12.3%.
